According to PubChem BioAssay AID894 (National Center for Advancing Translational Sciences (NCATS), 2007):
Hit rate of the full screen: of about 150,000 compounds, about 6,500 (4.3%) were called active. Inconclusive means that the source gave no clear call. Such entries were picked first, then a sample of the others. The call rests on the fitted dose curve; in most records, active means well fitted inhibition curve with a large enough effect (not every such curve was filed as active); inconclusive means small, poorly fitted or top-dose-only effect, or another doubt; inactive means no such curve, though single readings can be large or run the other way. Potencies of inconclusive entries are left out as doubtful fits.

What follows are compounds tested against 15-hydroxyprostaglandin dehydrogenase [NAD(+)] (Homo sapiens) (UniProt P15428) (assay: qHTS Assay for Inhibitors of HPGD (15-Hydroxyprostaglandin Dehydrogenase)). Details: purified HPGD, NADH fluorescence kinetic, PGE2 substrate; activity change, negative = inhibition: stronger effect = lower value.
How it was run: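 20 nM HPGD preincubated 15 min at room temperature with compound in 50 mM Tris-HCl pH 8, 0.01% Tween 20. Started with 1 mM NAD+ and 30 uM prostaglandin E2; NADH fluorescence (360/450 nm) read 5 times over 30-s intervals, last minus first.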
On the % scale 0 is the no-effect control and ±100 the full control effect; potency means the concentration at half of the fitted maximal effect; tags describe the fitted curve by direction and shape.

Chain of UniProt P15428 (P15428 whole entry, looked up): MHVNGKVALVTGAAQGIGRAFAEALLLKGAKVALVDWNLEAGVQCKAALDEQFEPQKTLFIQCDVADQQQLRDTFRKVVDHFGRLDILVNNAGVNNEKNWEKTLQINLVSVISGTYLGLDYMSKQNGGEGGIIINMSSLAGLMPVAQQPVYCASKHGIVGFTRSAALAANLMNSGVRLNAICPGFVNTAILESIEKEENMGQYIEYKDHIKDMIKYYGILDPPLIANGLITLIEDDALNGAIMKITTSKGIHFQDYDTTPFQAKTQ

Compound	activity change, negative = inhibition	Potency
CCOc1ccc(NC(=O)CN2CC(c3ccccc3)CC2=O)cc1 (stereo not given)	inactive: -7.36%	
COc1ccc(NC(=S)NNC(=O)Cn2nc([N+](=O)[O-])cc2C)cc1	inactive: -6.18%	
Nc1ccc(-c2cc(-c3ccc(N)cc3)nc(-c3ccccc3)n2)cc1		inconclusive [inhibitor, partial curve]
C[C@@H](C(=O)Nc1nc(-c2ccccn2)cs1)N1C(=O)C2CCCCC2C1=O (stereo not given in full)		active: 25.1 µM
CC1CCN(S(=O)(=O)c2ccc(NC(=O)CSc3nnnn3C)cc2)CC1	inactive: -5.26%	
CCc1cc(=O)oc2c(C)c(OCC(=O)N3CCCc4ccccc43)ccc12		inconclusive [inhibitor, partial curve]
O=C(c1csnn1)N1CCC2(CC1)CN(c1cccc(-c3ccccc3)c1)C2		inconclusive [inhibitor, partial curve]
O=C(CCSc1ccccc1)NCCSc1ccccn1		inconclusive [inhibitor, single point]
O=C(NCc1ccco1)c1cc2cc3ccc(Cl)cc3nc2o1		inconclusive [inhibitor, partial curve]
Fc1ccc2[nH]c3c(N4CCN(c5ccccc5)CC4)ncnc3c2c1		inconclusive [inhibitor, single point]
COc1ccccc1N(CC(=O)N/N=C/c1c(O)ccc2ccccc12)S(C)(=O)=O	inactive: -21.6%	
CCCc1nc2c(=O)[nH]c3ccccc3c2o1		inconclusive [inhibitor, partial curve]
CCOP(=O)(c1c(F)c(F)c(F)c(F)c1F)C(O)c1ccccc1 (stereo not given)		inconclusive [inhibitor, partial curve]
COc1ccc2[nH]c(=O)c(CN(C(=O)c3ccccn3)C3CCCCC3)cc2c1		inconclusive [inhibitor, partial curve]
Cc1ccc(NC(=S)NNC(=O)c2ccc(N3CCOCC3)c([N+](=O)[O-])c2)cc1Cl	inactive: -10.9%	
FC(F)(F)c1cc(-c2cccs2)nc2cc(-c3ccccc3)nn12		inconclusive [inhibitor, partial curve]
Clc1cccc(-c2nc3nc4ccccc4nc3n2Cc2ccco2)c1		inconclusive [inhibitor, partial curve]
CCNC(=S)Nc1ccc2cn[nH]c2c1		inconclusive [inhibitor, partial curve]
COc1ccccc1CNC(=O)CSc1ccc(Br)cc1		active: 28.2 µM
C=CCNC(=O)CSc1nc2sc(C)c(C)c2c(=O)[nH]1		active: 14.1 µM
Cc1cc(C)nc(NC(=O)c2cccc([N+](=O)[O-])c2)c1	inactive: -3.35%	
COc1ccc(C(=O)Oc2cc3c4c(c2)C(C)=CC(C)(C)N4C(=O)C3=O)cc1OC		active: 31.6 µM
Cc1nc(CN2CCCCC2)c(O)c(=O)[nH]1	inactive: -5.43%	
CCOC(=O)c1sc(=S)n(C)c1NC(=O)c1ccccc1C		active: 10 µM
Cc1cccc(OCC(=O)Nc2cccc(C(=O)Nc3ccccc3C(=O)O)c2)c1		inconclusive [inhibitor, partial curve, poor fit]

Compound	activity change, negative = inhibition	Potency
COC(=O)CCC/C=C1/SCC(NC(=O)c2ccccc2)C1=O (stereo not given)		active: 25.1 µM
O=[N+]([O-])c1ccc(/C=N/n2cnc3ccccc32)s1	inactive: -7.29%	
CC(=NCCN1CCN(C(C)=C2C(=O)c3ccccc3C2=O)CC1)C1=C(O)CC(C)(C)CC1=O	inactive: -7.24%	
CCN1CCN(c2nc(SC)nc3sc4c(c23)CC(C)(C)OC4)CC1		inconclusive [inhibitor, partial curve]
CCOC(=O)c1c(NC(=O)c2ccc(N3C(=O)C4C5C=CC(C5)C4C3=O)cc2)sc2c1CCCC2 (stereo not given)		inconclusive [inhibitor, partial curve]
O=C(COc1ccc(Cl)cc1Cl)Nn1c(=S)[nH]c2ncccc2c1=O		active: 28.2 µM
Cc1cc(C(F)F)n2ncc(C(=O)N3CCc4ccccc4C3)c2n1		active: 22.4 µM
CC1(C)CC(=O)C(=Cc2cn(-c3ccccc3)nc2-c2ccc(Cl)cc2)C(=O)C1		active: 1.12 µM
O=C(CCCOc1ccc(Cl)cc1Cl)N/N=C/c1ccccc1		inconclusive [inhibitor, partial curve]
O=C(COc1cccc2c1CCN(Cc1ccccc1)C2=O)NCc1ccco1	inactive: -17.4%	
CC(C)Cn1cc(C(=O)NCC2CCCO2)c2c3ccccc3n(C)c2c1=O (stereo not given)		inconclusive [inhibitor, partial curve]
Cc1cc(Cl)cc(Cl)c1CNc1c([N+](=O)[O-])c(=O)oc2ccccc12		inconclusive [inhibitor, partial curve]
Cc1nc(C#N)c(NCc2ccc3c(c2)OCO3)o1		inconclusive [inhibitor, partial curve]
COc1cc(/C=C2/NC(=O)N(Cc3ccccc3F)C2=O)ccc1Oc1ccc([N+](=O)[O-])cn1	inactive: -8.21%	
CCOc1ccc(OCC)c(Nc2cc(C)nc3ncnn23)c1		active: 4.47 µM
Clc1ccc(-c2nc3cnccn3c2NC2CCCC2)cc1		inconclusive [inhibitor, single point]
O=C(Nc1ccccc1C(=O)OCC(=O)N1CCc2ccccc2C1)c1ccco1		inconclusive [inhibitor, partial curve]
CC(C)OC(=O)CSc1nc2ccccc2s1		active: 15.8 µM
C=CCn1c(SC(C)CC)nc(O)cc1=O (stereo not given)	inactive: -3.23%	
CCOc1ccc(-c2nc(CSCC(=O)NCCN3CCOCC3)c(C)o2)cc1		inconclusive [inhibitor, single point]
CCCCOc1ccc(NC(=O)c2cnc(C)cn2)cc1		inconclusive [inhibitor, partial curve]
COC(=O)CSc1ccc2c(N)c(C(=O)OC)sc2c1		inconclusive [inhibitor, single point]
CC(C)c1ccc(-c2c(C#N)c(N)nc3c2CCCCC3)cc1		inconclusive [inhibitor, single point]
CCOC(=O)c1sc2c(c1C)C(c1cccs1)C1=C(CCCC1=O)N2 (stereo not given)		inconclusive [inhibitor, full curve]
CC(NC(=O)C1CCC1)c1ccc(Cl)cc1 (stereo not given)		active: 14.1 µM

Compound	activity change, negative = inhibition	Potency
CCOC(=O)Cc1c(C)nc2c(-c3cccc(Br)c3)c[nH]n2c1=O		inconclusive [inhibitor, partial curve]
N#C/C(=C\c1ccc[nH]1)S(=O)(=O)c1ccccc1		active: 4.47 µM
CCCn1c(C)nc2c(N3CCC(N(C)C)C3)nc(C)nc21 (stereo not given)	inactive: -1.01%	
Brc1ccc(-c2nnc3ccc(N4CCN(c5ccccc5)CC4)nn23)cc1		inconclusive [inhibitor, partial curve]
Cc1ccc(C2C3CN(C(C)C)CC=C3C(C#N)=C(N)C2(C#N)C#N)cc1 (stereo not given)		inconclusive [inhibitor, single point]
Cc1cc2oc(=O)cc(CN3CCc4ccccc43)c2cc1Cl	inactive: -20.3%	
COc1ccc(O)c(C(=O)c2cnc3c(c2)c(=O)[nH]c(=O)n3C)c1		active: 28.2 µM
COCCCN1C(=O)C(O)=C(C(C)=O)C1c1ccccn1 (stereo not given)		inconclusive [inhibitor, single point]
Cc1ccc(NC(=S)/N=C(\N)Nc2nc(C)c3ccccc3n2)cc1C	inactive: -27.4%	
COc1cc(C(=O)Nc2nnc(-c3sccc3C)s2)cc(OC)c1OC		inconclusive [inhibitor, single point]
CCCC(=O)c1ccc2c(c1)OCCO2		active: 28.2 µM
CCc1nc(N2CCCC2)c(C#N)c2c1CCCC2		inconclusive [inhibitor, partial curve]
COc1cc(NC(=S)NNC(=O)CC(C)C)c(OC)cc1Cl		active: 31.6 µM
Cc1ccc(O)c(-c2cc(C(=O)NCc3ccc4c(c3)OCO4)[nH]n2)c1		active: 3.16 µM
O=C(Oc1ccc2c(c1)OCO2)c1ccc(F)cc1Cl		inconclusive [inhibitor, partial curve]
Cc1ccc(C(=O)CSc2cc(C)nc(SCC(=O)c3ccccc3)n2)cc1		inconclusive [inhibitor, partial curve]
COc1ccc(C(=S)N(C)C)cc1OC		active: 10 µM
CCCC(=O)Nc1sc(C)c(-c2ccc(OC)cc2)c1C#N	inactive: -9.02%	
O=C1NC(=O)c2cc(NC(=O)C3CCCO3)ccc21 (stereo not given)		inconclusive [inhibitor, partial curve]
CCOc1cc(S(=O)(=O)N2CC=C(c3ccc(F)cc3)CC2)c(OCC)cc1-n1cnnn1		inconclusive [inhibitor, full curve, poor fit]
COc1cc2cccc(OC)c(=O)c2c(O)c1OC	inactive: -0.543%	
O=C(CSC1=NCCS1)NC1CCCC1		active: 25.1 µM
Cc1cccc(C(=O)Nc2ccccc2C(=O)OCc2c(C)noc2C)c1	inactive: -26.5%	
COC(=O)[C@H]1C[C@@H]1[C@H](NC(=O)c1cccnc1)c1ccccc1	inactive: -0.887%	
CN(C)[C@@H]1C(=O)C(C(=O)NCN2CCCC2)=C(O)[C@@]2(O)C(=O)C3=C(O)c4c(O)cccc4[C@@](C)(O)C3CC12 (stereo not given in full)		inconclusive [inhibitor, partial curve, poor fit]
